Test results: the BET-seq Pho4 binding data (Le et al. 2018)
This is one part of the list. The energies were worked out here from pooled read counts, against the library average; single values are noisy.

Molecular target: T1, Pho4 (S. cerevisiae) (UniProt P07270)
T1 sequence: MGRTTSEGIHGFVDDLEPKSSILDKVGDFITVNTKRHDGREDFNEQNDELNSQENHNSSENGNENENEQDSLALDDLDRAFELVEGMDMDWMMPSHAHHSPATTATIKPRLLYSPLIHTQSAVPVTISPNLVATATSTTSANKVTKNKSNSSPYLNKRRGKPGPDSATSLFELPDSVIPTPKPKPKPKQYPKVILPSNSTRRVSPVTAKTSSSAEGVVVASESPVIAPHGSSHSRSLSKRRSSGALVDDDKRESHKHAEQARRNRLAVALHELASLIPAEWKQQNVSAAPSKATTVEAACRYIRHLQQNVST
Experiment: relative binding free energy (BET-seq); higher = weaker binding
Conditions: reference: library average

Sequence | relative binding free energy [kcal/mol]
TTCGTCACGTGTTCTG | 0.19
GGAGGCACGTGGGATA | -0.22
TTTCGCACGTGTGCTT | -0.01
ATGCTCACGTGCGGGG | 0.03
AGAGGCACGTGGTCGG | -0.21
GGTAACACGTGGGTTG | -0.12
AGGAGCACGTGGTGTG | -0.19
GTTATCACGTGGCAGT | -0.01
GAGGTCACGTGGGCGG | 0.04
ATAATCACGTGTATGA | 0.03
AATTGCACGTGAAAGT | 0.3
TTGGGCACGTGATCAT | -0.12
CCGTTCACGTGGGTTG | 0.24
GAGTGCACGTGTTGTA | 0.04
GTGGGCACGTGGCAGT | -0.15
AATTTCACGTGCATGG | 0.25
AAAGCCACGTGGCGGG | -0.01
GATCTCACGTGAGTGG | 0.52
GGAGGCACGTGAAGGG | 0.24
GAGTTCACGTGGGTGC | 0.32
TTGCACACGTGGGGGA | -0.09
TCGTACACGTGGTTGA | -0.02
GGGTACACGTGGTATT | 0.12
TCAGGCACGTGTTGCG | 0
AGGAACACGTGGTTGT | -0.05

Sequence | relative binding free energy [kcal/mol]
GTGTGCACGTGGGAAT | 0.02
ATCTTCACGTGGTTGT | 0.2
TGGGGCACGTGGTGAC | -0.16
GGGGTCACGTGAAGCT | 0.46
AGTTTCACGTGCTAGG | 0.14
AGGGGCACGTGAGCAT | -0.04
TTTGCCACGTGTTAGT | -0.04
TAGGGCACGTGCTTGG | -0.27
AGGTGCACGTGTTTCA | -0.15
AGAGGCACGTGAAAAG | 0.24
CGGTTCACGTGTGGTT | 0.35
CTATGCACGTGTTAAG | -0.02
TGGTTCACGTGCTTGC | 0.16
AGAGGCACGTGTTTGA | -0.2
TCTGGCACGTGGTTTC | -0.14
TGGGTCACGTGGTCTC | -0.03
ATTATCACGTGAATTT | 0.28
ATTATCACGTGGATGG | 0.15
GGCGTCACGTGATTAG | 0.29
AAGGGCACGTGCATAT | -0.13
CTTTACACGTGTTGTC | 0.09
ACTATCACGTGTTTAT | 0.07
TGATGCACGTGGCGCG | 0.03
GCGACCACGTGAGGGG | 0.33
GCATACACGTGGGCGG | 0.02

Sequence | relative binding free energy [kcal/mol]
AATCGCACGTGTTGGG | -0.12
ATGCGCACGTGGTGAG | -0.1
GGAGGCACGTGGTATA | -0.12
TTGATCACGTGGAAAG | 0.19
TTAGGCACGTGACAGT | -0.02
TTAGGCACGTGCTGAT | -0.2
AGCCTCACGTGTTGGT | 0.15
AGTGGCACGTGAGGAA | 0.05
CAGTTCACGTGGGTAG | 0.06
TTCTTCACGTGTTTTG | 0.29
TTGGTCACGTGCTGTA | 0.08
CATATCACGTGTGTTA | 0.2
GATAACACGTGAGGGG | 0.31
TTTGACACGTGCAAGT | 0.02
AATGACACGTGCGTTG | -0.1
TGCAACACGTGGCGGG | -0.07
TTCGTCACGTGAACGG | 0.24
TTTGCCACGTGGTCAT | -0.16
AGGTCCACGTGTGGGT | 0.1
AATGGCACGTGCAGAG | -0.09
AGAGGCACGTGGCGTT | -0.29
AGAGACACGTGAGGGG | 0.22
TGAACCACGTGGGGTA | -0.24
GCGAGCACGTGGCTGG | -0.1
ACTTGCACGTGGTTTG | -0.17

Sequence | relative binding free energy [kcal/mol]
TGCGACACGTGTGGCT | 0.12
TGTGTCACGTGCTGCG | -0.11
TGGCTCACGTGAGGCG | 0.47
CGAGTCACGTGGTTAT | 0.1
AGCATCACGTGGGGAG | -0.05
GTGGCCACGTGTGGGC | -0.1
GTTTTCACGTGGGCCG | 0.31
CTGGTCACGTGTCGTT | 0.22
CGTATCACGTGTATAT | 0.16
ATATACACGTGGGGCT | -0.11
CAGTTCACGTGTTAGG | 0.22
ATATTCACGTGAGCTG | 0.32
AAGGTCACGTGCGTGA | -0.1
TTATGCACGTGCAGAG | 0.02
CGGTTCACGTGGTTTC | 0.21
GTCAGCACGTGTTATT | 0
ATTTTCACGTGTGTGA | 0.23
TAATTCACGTGGCTAT | 0.23
GTGATCACGTGACTGG | 0.35
GGCGTCACGTGTAGGC | 0.13
AATGGCACGTGGGTCA | -0.39
GAGTGCACGTGAGATT | 0.28
GCGTGCACGTGAGTTT | 0.15
AGAAGCACGTGAAGGT | 0.09
AATGTCACGTGTCTGT | 0.2

Sequence | relative binding free energy [kcal/mol]
TTGGCCACGTGAGAGG | 0.26
TGATGCACGTGCGTGT | -0.08
GGTGCCACGTGTTATA | -0.08
GGCGTCACGTGGAAGG | 0.16
GTGCGCACGTGGTGAT | -0.08
AGTATCACGTGGGGAG | -0.05
TTGTTCACGTGGTACC | 0.13
ATGAACACGTGGGTTT | -0.07
CCTTACACGTGGGTGG | 0.11
GATAACACGTGGAGGG | -0.02
ATTACCACGTGTTAGT | -0.07
ATTCTCACGTGATTGT | 0.19
GGTTTCACGTGTCAAG | 0.28
TACTGCACGTGAGTTA | 0.17
AAGTTCACGTGTAACG | 0.37
TACATCACGTGAGTTT | 0.24
AAACACACGTGTGTGT | 0.11
GGGTGCACGTGATTCT | 0.12
AGGCGCACGTGTGGCA | -0.05
ATGTCCACGTGGTATA | -0.06
CGGGACACGTGGCGGT | 0.02
ACGTACACGTGTGTGG | 0
GGGGGCACGTGATAAA | 0.07
TCGGTCACGTGTCAGT | 0.14
GTTATCACGTGGGGGG | 0.05

Sequence | relative binding free energy [kcal/mol]
GGGTACACGTGTTGCG | -0.01
CTTAGCACGTGTTTCG | 0.03
GGGTTCACGTGGGTTT | 0.24
GGATGCACGTGATGCG | 0.21
TGACACACGTGAGTGG | 0.22
AAGGGCACGTGGCGCG | -0.16
GTCGTCACGTGGTTGA | -0.19
GAATGCACGTGCTTGT | 0.1
GTGGACACGTGGCGAG | 0.1
GATATCACGTGTGGTA | 0.3
CTGAGCACGTGGGCGT | -0.24
TAGGTCACGTGCTTGC | 0.07
GCGTCCACGTGGGGGT | -0.22
GGCTACACGTGTTTTT | 0.33
TGAAACACGTGGCGTG | 0.01
GGGTACACGTGATGTC | 0.31
TGTTACACGTGACGTT | 0.31
TACTGCACGTGATATG | 0.03
AGAGTCACGTGGGTAC | -0.03
TTGGGCACGTGGCAGG | -0.26
TTTGCCACGTGTGGTT | -0.01
